Laboratory results reported in PubChem BioAssay AID1963576 (National Center for Advancing Translational Sciences (NCATS), 2024).
Screen size: about 46,000 compounds; about 60 (0.1%) were called active. Roughly 3% stayed inconclusive and do not appear here. Calls come from the whole dose curve; as a rule, active = well fitted inhibition curve with a large enough effect; inconclusive = small, poorly fitted or top-dose-only effect; inactive = no such curve, though single readings can be large or run the other way. The list shows a part of the results.

test: Primary qHTS assay for Inhibitors of ovarian cancer metastasis using an organotypic tumor microenvironment (TME) model.; note: nearly all actives have a fitted effect of over 65% in size;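 for activity change, negative = inhibition: plate controls were DMSO wells for no effect and tomatine positive control wells for full effect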; conditions: SKOV3ip1-GFP adhesion/invasion on 3D omental model, fluorescence; series mostly up to 45.8 µM; activity change, negative = inhibition: at the top concentration
Method in brief: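 A 3D layer of primary human omental fibroblasts, mesothelial cells, fibronectin and collagen I, grown 48 hr, received SKOV3ip1-GFP cells in serum-free medium plus compounds at 0.36-46 umol/L. After 2 hr RT and 16 hr 37 C, fixed adherent GFP cells were counted; normalized to DMSO and tomatine.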

outcome, inactive:
CCn1c(C(=O)N2CCCC(C(=O)N3CCN(c4ccccc4)CC3)C2)cc2sccc21 (centres undefined)
COc1ccc(-c2cc3nccc(-c4cc(Cl)c(C)cc4O)n3n2)cc1
O=c1cc(-c2ccccc2)n2c(SCc3ccc(Br)cc3)nnc2[nH]1
COc1ccc(-n2ccnc(NCCc3ccc(Cl)cc3)c2=O)cc1OC
Cc1nn2c(=O)cc(COc3ccc(/C=C(\C#N)C(=O)Nc4ccccc4)cc3Cl)nc2s1
CCC(=O)Nc1ccc(CC)cc1-c1nc2ccccc2n(CC(=O)Nc2ccccc2C)c1=O
CCOc1cc(C(=O)NCc2nc(-c3cccc(C)c3)no2)cc(OCC)c1OCC
CCOc1ccc(-c2cc(C(=O)NCCCOC)c3c(-c4ccc(CC)cc4)[nH]nc3n2)cc1
COc1cc2c(cc1OC)C(COc1ccc(F)cc1)N(C(=O)Cc1ccccc1)CC2 (centres undefined)
CCc1ccccc1NC(=O)CSc1nnc(COc2ccccc2Cl)o1
CCn1c(=N)c(C(=O)NCC2CCCO2)cc2c(=O)n3cc(C)ccc3nc21 (centres undefined)
Cc1ccc(Cn2c(CNC(=O)Cc3cccc([N+](=O)[O-])c3)nc3cccnc32)cc1
COc1cc(C(=O)N2CCC(c3nc4ccccc4s3)CC2)cc(OC)c1OC
CCCCOc1ccc(CNC(=O)C2CCCN(c3nnc(-n4c(C)ccc4C)s3)C2)cc1 (centres undefined)
CCNc1ccc(-c2nc(-c3ccncc3)no2)cc1[N+](=O)[O-]
CC(=O)Nc1ccc(S(=O)(=O)Nc2cccc(-c3ccc(N4CCCCCC4)nn3)c2)cc1
COc1ccc(C(=O)NCCn2cc(SCC(=O)Nc3ccc(F)cc3)c3ccccc32)cc1
Cc1nc(-c2ccc(S(=O)(=O)NCc3ccc(OC(C)C)cc3)cc2)co1
Cc1nn2c(=O)cc(COC(=O)C(c3ccccc3)c3ccccc3)nc2s1
O=C(NCC(c1cccnc1)N1CCc2ccccc2C1)C(=O)Nc1ccc(F)cc1F (centres undefined)
Cc1ccc(NC(=O)C2CCN(C(=O)c3cnn(-c4ccccc4)c3-n3cccc3)CC2)cc1C
Cc1cccc(CCNC(=O)c2nn(C)c3c2CSc2ccccc2-3)c1
CCc1ccc(CNc2ncnc3onc(-c4ccc(Cl)cc4)c23)cc1
CCOc1ccc(CN(C(=O)c2cc(=O)c3cc(Cl)ccc3o2)C2CCS(=O)(=O)C2)cc1 (centres undefined)

Activity change, negative = inhibition, inactive:
CCc1ccc(NC(=O)N2CCC(N3CCN(Cc4ccc(C)cc4)C(=O)C3=O)CC2)cc1 -1.16%
Cc1nn(CC(=O)NCCc2ccccc2)c(=O)c2c1sc1ccccc12 14.2%
CCOc1ccccc1NC(=O)CSC1=Nc2ccccc2C2=NC(CC(=O)NCc3ccc4c(c3)OCO4)C(=O)N12 (centres undefined) 7.13%
CCC(C)NC(=O)Cn1c(=O)n(-c2ccc(C)c(C)c2)c(=O)c2c(C)c(C(=O)N(CC)CC)sc21 (centres undefined) -17%
CC(C)(C)c1ccc(C(=O)N2CCN(CCc3ccccn3)CC2)cc1 2.66%
CC(=O)N1c2ccc(S(=O)(=O)N(C)CC(=O)N(Cc3ccccc3)C(C)C)cc2CC1C (centres undefined) 4.13%
CCN(Cc1ccccc1)Cc1c(O)ccc2oc(C)c(C(=O)Nc3ccccc3C)c12 -13.5%
O=C(Cc1ccccc1)Nc1nnc2n1CCS2 -5.62%
COc1ccccc1CN1C(=O)C(=O)c2cccc(C)c21 -3.47%
Cc1cc2nc(N(Cc3cccnc3)C(=O)c3ccc(Cl)s3)sc2cc1C 0.851%
CCCCSCCCNC(=O)c1c[nH]c2ccc(S(=O)(=O)Nc3cccc(OC)c3)cc2c1=O 6.5%
Cc1ccc(S(=O)(=O)NCC(c2ccc(N(C)C)cc2)N2CCc3ccccc32)cc1 (centres undefined) 2.93%
CCOc1ccccc1NC(=O)N1CCc2c(sc3c2CCCC3)C1c1ccccc1 (centres undefined) 0.252%
COc1ccc(NC(=O)Nc2cc(-c3cn4cccnc4n3)ccc2OC)cc1 -9.46%
Cc1ccc(CN2c3ccccc3-c3nc(SCC(=O)Nc4c(C)cc(C)cc4C)ncc3S2(=O)=O)cc1 3.29%
CCOc1ccccc1C(=O)N1CC(=O)Nc2ccc(C)cc2C1c1ccccc1 (centres undefined) -13%
Brc1ccc2c(c1)NC(c1cccnc1)=NC(c1ccccc1)=N2 -16.8%
CNC1CCC(N(Cc2cccc(-c3ccncc3)c2)C(=O)c2sc3c(F)ccc(F)c3c2Cl)CC1 (centres undefined) -3.57%
O=C(OCc1ccccc1Cl)c1ccc(-c2nnn(Cc3ccc(F)cc3)n2)cc1 2.07%
Cc1ccc(CNc2ncnc3onc(C)c23)cc1 23.1%
CCN(CC)c1ccc(NC(=O)CCS(=O)(=O)c2ccc3c(c2)oc(=O)n3C)c(C)c1 2.19%
O=C(CSc1nc2ccccc2nc1Cc1ccccc1F)Nc1cccc(C(F)(F)F)c1 -4.59%
COc1ccc(-c2onc(C)c2C)cc1S(=O)(=O)Nc1cc(Cl)ccc1C -4.21%
Cc1ccc(NC(=O)Cn2c(=O)oc3cc(S(=O)(=O)N4CCCCC4)ccc32)c(C)c1 -8.21%
COc1ccc(-c2cc3nc(C)c(CCC(=O)N4CCN(c5ccccc5F)CC4)c(C)n3n2)c(OC)c1 9.09%
CCc1cccc(C)c1Nc1c(-c2cccs2)nc2nc(C)cc(C)n12 17.4%
COC(=O)c1ccccc1NC(=O)c1cc(CN2CCOCC2)on1 -11.1%
Cc1cn2c(=O)cc(COC(=O)c3ccc(NC(=O)COc4ccc(C)c(C)c4)cc3)nc2s1 -4.41%
COc1cc(C(=O)Nc2ccc(-c3nc4ccccc4o3)c(O)c2)cc(OC)c1OC -6.58%
CC(C)OCCCn1c(=O)c2ccccc2n2c(-c3cc(Cl)ccc3O)nnc12 -15.3%
O=S(=O)(NCC(c1ccccc1)N1CCc2ccccc21)c1ccccc1 (centres undefined) -22%
O=c1c2ccccc2n(Cc2c(F)cccc2Cl)c(=O)n1Cc1ccccc1 5.58%
COc1ccc(-c2nc3ccccc3s2)cc1NC(=O)c1cccc([N+](=O)[O-])c1C 0.159%
CC(NC(=O)CSc1nc(-c2cccc(Cl)c2)nc2cc(=O)[nH]n12)c1nc2ccccc2n1C (centres undefined) 4.23%
CCc1ccccc1NC(=O)CN1C(=O)c2cccnc2Sc2ccccc21 -19.6%
CCn1c(=O)c2sccc2n2c(CCC(=O)Nc3ccc(OC)cc3OC)nnc12 15.2%
CCc1ccc(-c2cc(C)no2)cc1S(=O)(=O)Nc1cc(OC)c(OC)c(OC)c1 1.46%
Cc1ccc(S(=O)(=O)N2CCN(Cc3ccc4c(c3)OCO4)CC2)cc1 0.173%
Cc1ccc2c(c1)sc1nc(=O)n(-c3ccc(Cl)c(Cl)c3)c(=O)n12 6.98%
COc1ccc(C2=C(C)C(=NCc3ccc(OC(C)C)cc3)NS2(=O)=O)cc1 1.95%
CCCOc1ccc(NC(=O)CC2C(=O)N(c3ccc(F)cc3)C(=O)N2CC(C)C)cc1 (centres undefined) 0.649%
CCn1c(=O)cc(OCC(=O)N2CCN(c3cccc(Cl)c3)CC2)c2ccccc21 -11.7%
CNC(=O)c1cc(Oc2ccc(NC(=O)Nc3ccc(Cl)c(C(F)(F)F)c3)cc2)ccn1 4.26%
O=C(COc1ccccc1F)Nc1ccc2nc(SCC(=O)N3CCCC3)sc2c1 -9.89%
COc1cc(NC(=O)Cn2cnc3sc(C)c(S(=O)(=O)N4CCC(C)CC4)c3c2=O)cc(OC)c1OC 1.46%
Cc1ccc2c(=O)c(C(=O)c3ccccc3)cn(CC(=O)Nc3ccccc3C)c2n1 -7.01%
CCn1cc(C(=O)NCCc2ccc(Cl)cc2)c(=O)c2cc(S(=O)(=O)N3CCCCCC3)ccc21 6.19%
Cc1nn(CCCC(=O)Nc2cccc(C(F)(F)F)c2)c(=O)c2nn(-c3ccccc3)c(C)c12 3.31%
CC(NC(=O)CN1C(=O)COc2ccc(Cl)cc21)c1ccccc1 (centres undefined) 3.76%
COc1ccc(CCNC(=O)CCCn2c(=O)c3ccccc3n(CC(=O)Nc3ccc(C)cc3Cl)c2=O)cc1OC 12.3%
COc1ccc(Cl)cc1NC(=O)NCc1noc2ccccc12 5.01%
Cc1ccc2c(c1)N(C(=O)N1CCC(C(=O)NCc3cccs3)CC1)CC(C)O2 (centres undefined) 5.51%
COc1ccc(CNC(=O)c2cc3c(=O)[nH]c4ccccc4c3n2C)c(OC)c1 4.29%
Cc1ccc(-c2c(C(=O)N(C)Cc3ccccc3)oc(=O)c3ccccc23)cc1 -5.3%
Cc1cccc(N(CC(=O)NCCSc2ccc(Cl)cc2)S(C)(=O)=O)c1C -3.89%
Cc1ccc(-n2ncc(C(=O)N3CCN(C(=O)c4ccco4)CC3)c2C2CCN(C(=O)OC(C)(C)C)CC2)cc1 22.3%
CCS(=O)(=O)c1ncc(Cl)c(C(=O)Nc2c(C(=O)c3ccc(C)cc3)oc3ccccc23)n1 -9.28%
COC(=O)c1nnn(-c2ccc(Cl)cc2)c1C(=O)OC 2.65%
C=C(C)Cn1c(SCC(=O)Nc2cccc(C)c2)nc2sc3c(c2c1=O)CCCC3 1.67%
CC(C)c1ccc(NC(=O)CCNS(=O)(=O)c2ccc3c(c2)oc(=O)n3C)cc1 0.245%
O=C(CN1CCCN(Cc2cccc(F)c2)S1(=O)=O)Nc1ccc2c(c1)OCCO2 4.61%
Cc1cccc(-c2nc(C)c(CCNC(=O)c3cccs3)s2)c1 -26.9%
O=C(c1ccc2c(c1)N(Cc1cccc(Cl)c1)C(=O)c1ccccc1S2(=O)=O)N1CCCCCC1 1.09%
O=C(CSc1oc(-c2ccc(F)cc2)nc1S(=O)(=O)c1ccc(Cl)cc1)c1ccccc1 3.88%
COc1cccc(-c2cn3c(n2)sc2cc(C(=O)NCCC4=CCCCC4)ccc23)c1 1.58%
NC(N)=NC(=O)c1nc(Cl)c(N)nc1N 8.53%
COc1ccc(N2CCN(C(CNC(=O)c3cccc(OC)c3)c3cccnc3)CC2)cc1 (centres undefined) 4.17%
COc1ccc(-c2cc(C(F)(F)F)n3nc(C(=O)Nc4sc5c(c4C(=O)OC(C)C)CCCC5)cc3n2)cc1OC 9.39%
CCCCNC(=O)CSC1=Nc2ccccc2C2=NC(CCC(=O)NCc3ccccc3OC)C(=O)N12 (centres undefined) -12.1%
CCc1ccc(NC(=O)CSc2cn(CC(=O)N3CCOCC3)c3ccccc23)cc1 -9.72%
